Test results: PMC12136788
This is one part of the list.

B1: chr18:21869459:21869560:+|3pUTR|ENSG00000101752|msi1|FALSE|unique (ssRNA)
RNA: GGGAGUUCUACAGUCCGACGAUCUAAAAGAUGGUCUUUAGUGCACGUGUAUCAUUAUAUACACGUUUUAAAGUCAUAUUGCUUAGCUUGUUAAUAAUGAUUCUGCAUGUGUGCUGGGUUUGGGUAAUUCUUUAAAGGAAGUUUCAACAGAGGAUUGAGCAUCA
B2: chr11:69651811:69651939:+|3pUTR|ENSG00000110092|msi1_unk|total|mutant (ssRNA)
RNA: GGGAGUUCUACAGUCCGACGAUCUAAAGCACAGCUGCCGUGGGGUUCCCGGCAUCUCUGUACUUUGCUUGCUCAUAUGCAUGCCGUCACUUUAUAAGUCAUUGUAUGUUAUUAUAUUCCGCCGGCCGAUGUGUAACCUCUUCACAACAGAGGAUUGAGCAUCA
B3: chr5:72207278:72207408:+|3pUTR|ENSG00000131711|msi1_unk|FALSE|overlapping (ssRNA)
RNA: GGGAGUUCUACAGUCCGACGAUCAGAGAACAAUGACCUCAUUUUAUUUUCUAUGUUAGUUAUUUAUUUCAAAAUUAACAUUUUAGUUGAUUUUUGUCUGAUAAGUCUAUGUUUUGCACUGCUAACUAUGAUGAGGGUUUAAAACAACAGAGGAUUGAGCAUCA
B4: chr17:4937608:4937709:-|3pUTR|ENSG00000108528|msi1|total|mutant (ssRNA)
RNA: GGGAGUUCUACAGUCCGACGAUCAAGCGUCUCUUCCUCAGUGGCUGAAGCGGCCGGGGGCUCCCACUCGCCUGCUGCGCCUACCGCCACUGCGCCCUGGGGGCCUGGGCUCUGCUGCCCUGGACCCCUCUAUUUAUUUCCCUUCAACAGAGGAUUGAGCAUCA
B5: chr3:81489889:81489990:-|3pUTR|ENSG00000114480|msi1|total|mutant (ssRNA)
RNA: GGGAGUUCUACAGUCCGACGAUCUUGGUCUAAAUUAUGAGGUACCAAGAUUGUUUCUUUGUUUCUUUUUUUCAAAUUGUGUUCCGAAAUACUGUAAUAAAUAUGCAGCCGUGAUAUAAAGAAUUAUAUCCAAGGUAAUAUAAACAACAGAGGAUUGAGCAUCA
B6: chr11:108393207:108393378:-|CDS|ENSG00000166323|control|control|control (ssRNA)
RNA: GGGAGUUCUACAGUCCGACGAUCUCUAGGACUAAUUCACACUGCAACAAAGGGGCUGAUUAGAGCUUUUGAAGAUGGGGGGAUAGAUUCUGUGAUGGAAUGGGAAGUGGAUGAAGUGCUGAACUGGACAAAUACACUGAACUUCAACAGAGGAUUGAGCAUCA
B7: chr2:88557131:88557241:-|3pUTR|ENSG00000172071|msi1|FALSE|unique (ssRNA)
RNA: GGGAGUUCUACAGUCCGACGAUCGAGGACAAGUAGCACAAACUGUAUAACGGUUUAUGUCCGUAGUUUUAUAGUCCUAUUUGUAGCAUUCAAUAGCUUUAUUCCUUAGAUGGUUCUAGGGUGGGUUUACAGCUUUUUGUACUUCAACAGAGGAUUGAGCAUCA
B8: chr5:72209348:72209524:+|3pUTR|ENSG00000131711|msi1_unk|total|mutant (ssRNA)
RNA: GGGAGUUCUACAGUCCGACGAUCUUAUGUCUUAUAAUCCUGCAUCACUUCUAUCCUAUCCAGUCAUAUCUAAUGCCGAAAAUCCGUUUCCAGUGAAAGUAAUAUGCCGUGCUUUUAUGAUAUUUGUGUGCAAUAUCCCCUCUUCAACAGAGGAUUGAGCAUCA
B9: chr7:2664602:2664704:+|3pUTR|ENSG00000136295|msi1_unk|FALSE|overlapping (ssRNA)
RNA: GGGAGUUCUACAGUCCGACGAUCUCCUCCAGCCUCUGUAGGGCCAUGGCUGUAUGUACUGUCGCUGUGUUUUUUUGUUUUUUUAGAACUGGGUUUGGGGGCUGAUUUUUAUUUCUUUGGGGGCUUUUUUUCUUGGCAAAUACUCAACAGAGGAUUGAGCAUCA
B10: ENSG00000107863:be:win_3801|CDS|ENSG00000107863|bound_else_gene|NA|bound_elsewhere_windowed (ssRNA)
RNA: GGGAGUUCUACAGUCCGACGAUCUGAACAUCAUUAUGAAACACUUAAGUUCCUUUCAGCUCAUCUGAAGACAGUGGCAGAAAAUUCAGAAAAAAAUAAGAUGGAACCAAGAAACCUAGCAAUAGUGUUUGGUCCCACCCUUGUCAACAGAGGAUUGAGCAUCA
B11: chr3:46835109:46836203:-|three_prime_utr|ENSG00000160808|control|control|control (ssRNA)
RNA: GGGAGUUCUACAGUCCGACGAUCUGAAGGCACAAGCUGUUCCAGUAUAAUAAAGAAAAUAAUUAAAUUAAGAAAAGUUAUACUAGAAAUAAGAUAUAGGUAUGAUUAUUAUUAAUCAUUAGUUUGUAGUAUUACUUUGUUCUACAACAGAGGAUUGAGCAUCA
B12: chr5:136174412:136174513:+|CDS|ENSG00000113658|unk|FALSE|unique (ssRNA)
RNA: GGGAGUUCUACAGUCCGACGAUCUAUGUUGGUGGAGAGGUGUAUGCGGAAUGCCUCAGUGACAGCAGCAUAUUUGUACAGAGUAGGAACUGCAACUUUCAUCAUGGCUUUCAUCCCACCACUGUCUGUAAGAUUCCCAGCAGCCAACAGAGGAUUGAGCAUCA
B13: chr8:93923365:93923466:+|CDS|ENSG00000164951|msi1|FALSE|unique (ssRNA)
RNA: GGGAGUUCUACAGUCCGACGAUCGCAGGAUGUGGUUAGGAUUGUGGGUGAGUACCUAACUGGCAUGCAUCACCAACAGCCAAUAGCUGUUGGUGGCUACAAGGUGACUCUGGGACAGAUGCAUGGCCUUUUAACAGAAAGGAGCAACAGAGGAUUGAGCAUCA
B14: chr14:92688591:92688692:+|3pUTR|ENSG00000100599|msi1|total|mutant (ssRNA)
RNA: GGGAGUUCUACAGUCCGACGAUCUCCCCAUGAGUCCCCCACACCCACCCCAUCCUCGGUCUUUGCAAAGAAGGGCCCGAGCUCCGUUUCCCCAGGACUGGCCCCGGAAGGAGCACCGGCCACAGCUGCUCCCCGUGCCACUCACAACAGAGGAUUGAGCAUCA
B15: ENSG00000175387:stop:overlap|stop_codon|ENSG00000175387|stop_codon|NA|stop_codon (ssRNA)
RNA: GGGAGUUCUACAGUCCGACGAUCUGUUUCAUUGCAUUCUUGCAUAUUCUGGAGUUCAUUUGUAUCUAUUUUCAAUGAGGUUAUAGAGUCAGCUGAUCUUUAUGUAAAAUAAAGUUGGAGGCCUCCAAAUUCAAAACUGUUGCACAACAGAGGAUUGAGCAUCA
B16: chr9:97930034:97931221:-|CDS|ENSG00000136929|control|control|control (ssRNA)
RNA: GGGAGUUCUACAGUCCGACGAUCCAAUGAAACAGAUCAAGGAAUAGCUGAGACAGAAGGCCUUUUUCCUAAAAUACAAGAAAUAGCUGAGCCUAAAGACCUUUCUACAAAAACACACCAAGAAUCAGCUGAACCUAAAUACCUCAACAGAGGAUUGAGCAUCA
B17: chr14:96489241:96489342:+|3pUTR|ENSG00000140057|unk|total|mutant (ssRNA)
RNA: GGGAGUUCUACAGUCCGACGAUCUAAAGUGUAUAAUUCAGUGGCACUAAGUUCAUUCACAAUGAUCUGCAGCCACCACUAUCCCGUCCAGAACUUUCUCAUCACCCCAAAUGGAAACCCAGCACCUAUCCGGCAGUCACGCUCCAACAGAGGAUUGAGCAUCA
B18: chr22:29286963:29287064:+|CDS|ENSG00000182944|unk|total|mutant (ssRNA)
RNA: GGGAGUUCUACAGUCCGACGAUCCAGAGCAGUUACUCUCAGCAGAACACCUAUGGGCAACCGAGCAGCUAUGGACAGCAGAGCCGCUAUGGUCAACAAAGCAGCUAUGGGCAGCAGCCUCCCACCCGUUACCCACCCCAAACUCAACAGAGGAUUGAGCAUCA
B19: ENSG00000130720:stop:overlap|stop_codon|ENSG00000130720|stop_codon|NA|stop_codon (ssRNA)
RNA: GGGAGUUCUACAGUCCGACGAUCGCUGGCAGUACUCACUCAAGUUCUCUGAGAUGAAGAUCCGGCCGGUCCGGGAGGACCGCUAGACUGGUGCACCUUGUCCUUGGCCCUGCUGGUCCCUGUCGCCCCAUCCCCGACCCCACCCAACAGAGGAUUGAGCAUCA
B20: chr16:46956839:46956924:-|3pUTR|ENSG00000069345|msi1_unk|FALSE|overlapping (ssRNA)
RNA: GGGAGUUCUACAGUCCGACGAUCAUCAAUCCAGAUGAACUGAGGGACAUCUGUUGGUCUAUGUAUAACUUUUAAAAUUGGUAUAGUAUCUACAGAGUGUAUAAUUUAAACUAACCACAAAGCUUUACAUCUUCAUUUUGACUGCAACAGAGGAUUGAGCAUCA
B21: chr11:57233576:57235861:-|three_prime_utr|ENSG00000134817|control|control|control (ssRNA)
RNA: GGGAGUUCUACAGUCCGACGAUCAGAGAAGCCUGGCGCCCUCGGCCCUCCCCGGCCUUUGCCCUUGCUUUCUGAAAAUCAGGUAGUGUGGCUACUCCUUGUCCUAUGCACAUCCUUUAACUGUCCCCUGAUUCUGCCCCGCCCCAACAGAGGAUUGAGCAUCA
B22: chr4:87981664:87981765:+|CDS|ENSG00000118785|msi1|FALSE|unique (ssRNA)
RNA: GGGAGUUCUACAGUCCGACGAUCCACUGAUUUUCCCACGGACCUGCCAGCAACCGAAGUUUUCACUCCAGUUGUCCCCACAGUAGACACAUAUGAUGGCCGAGGUGAUAGUGUGGUUUAUGGACUGAGGUCAAAAUCUAAGAACAACAGAGGAUUGAGCAUCA

Molecular target: MSI1 full-length (mouse, UniProt Q61474 1-362)
Chain of UniProt Q61474 (Q61474 whole entry): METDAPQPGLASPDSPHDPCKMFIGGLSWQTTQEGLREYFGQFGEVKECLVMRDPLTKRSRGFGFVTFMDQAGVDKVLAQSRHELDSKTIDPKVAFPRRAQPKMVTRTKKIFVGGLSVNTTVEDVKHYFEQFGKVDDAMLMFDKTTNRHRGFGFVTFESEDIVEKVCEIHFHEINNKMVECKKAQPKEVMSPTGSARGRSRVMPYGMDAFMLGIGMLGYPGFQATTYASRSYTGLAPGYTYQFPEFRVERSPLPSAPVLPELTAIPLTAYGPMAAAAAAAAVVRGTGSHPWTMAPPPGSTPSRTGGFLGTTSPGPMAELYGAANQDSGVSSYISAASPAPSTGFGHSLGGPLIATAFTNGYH
Test: nsRBNS (natural sequence RNA bind-n-seq); RBNS binding buffer (assumed for nsRBNS): 25 mM Tris pH 7.5, 150 mM KCl, 3 mM MgCl2, 0.01% Triton X-100, 500 ug/ml BSA, 20 U/ml SUPERase-In, 4 C; UNK is unkempt and MSI1 is Musashi-1; names of the RNAs are library labels; protein concentration not given here; high values mean tight binding

Binder	binding signal [enrichment R]
B1	0.4
B2	0.426
B3	1.11
B4	0.667
B5	0.643
B6	0.767
B7	14.3
B8	0.64
B9	1.75
B10	0.237
B11	24.8
B12	0.546
B13	0.408
B14	0.586
B15	0.726
B16	0.607
B17	0.33
B18	0.594
B19	0.763
B20	1.93
B21	0.706
B22	0.451
